This passage reports activity change, negative = inhibition results from PubChem BioAssay AID1745853 (National Center for Advancing Translational Sciences (NCATS), 2022).

Holding throughout (test): Primary Screen for Target Class Profiling of Small Molecule Inhibitors of Methyltransferases
Experiment [1] deals with Glycine N-methyltransferase (Homo sapiens) (UniProt Q14749). The following applies: purified enzyme, MTase-Glo SAH luminescence; measured here: GNMT inhibition; at 40 µM; stronger effect = lower value. A digest of the protocol:
(§1)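 Each enzyme was reacted with SAM and its substrate, with compounds tested once at 40 uM; SAH formed was read by MTase-Glo luminescence.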

In experiment [2] the target is Guanidinoacetate N-methyltransferase (Homo sapiens) (UniProt Q14353). The following applies: purified enzyme, MTase-Glo SAH luminescence; measured here: GAMT inhibition; at 40 µM; stronger effect = lower value. Summed up:
as §1

The target in experiment [3] is Histamine N-methyltransferase (Homo sapiens) (UniProt P50135). The following applies: purified enzyme, MTase-Glo SAH luminescence; measured here: HNMT inhibition; at 40 µM; stronger effect = lower value. Summed up: as §1
In experiment [4] the target is Nicotinamide N-methyltransferase (Homo sapiens) (UniProt P40261). The following applies: purified enzyme, MTase-Glo SAH luminescence; measured here: NNMT inhibition; at 40 µM; stronger effect = lower value. A digest of the protocol:
as §1

The target of experiment [5] is Phenylethanolamine N-methyltransferase (Homo sapiens) (UniProt P11086). Conditions: purified enzyme, MTase-Glo SAH luminescence; measured here: PNMT inhibition; at 40 µM; stronger effect = lower value. Summed up: as §1

The other results are listed elsewhere or left out. These are further read-outs of the screen, such as a control signal, another cell line or another target. No call is given for them.
% is scaled to controls: 0 for no effect and ±100 for the full control effect.

Regarding `COc1ccc(NC(=O)N2Cc3ccccc3-n3cccc3C2c2ccc(F)cc2)cc1OC` (stereo not given), the activity change, negative = inhibition in experiment [1] is -0.87%; in experiment [2], 6.4%; in experiment [3], 5.92%; in experiment [4] it was -2.25%; in experiment [5], 5.98%.
The matching figures for `CCC1(N2CCN(C(=O)Cc3c[nH]c4ccccc34)CC2)CCN(S(C)(=O)=O)C1` (stereo not given): -4.82%, -4.51%, -1.86%, -9.1% and 9.29%.
As to `C/C=C1/CN2CC[C@]34C(=Nc5ccc(OC)cc53)C2C[C@@H]1C4(CO)C(=O)OC` (stereo not given in full), the activity change, negative = inhibition in experiment [1] is -0.491%; in experiment [2], -5.12%; in experiment [3], -16.3%; in experiment [4], -16.2%; in experiment [5], 0.649%.
With `COc1ccc(NC(=O)N2Cc3ccccc3-n3cccc3C2c2ccc(SC)cc2)cc1` (stereo not given), the activity change, negative = inhibition in experiment [1] came to 0.471%; in experiment [2], 0%; in experiment [3] it was 7.63%; in experiment [4], 5.35%; in experiment [5], 5.41%.
The matching figures for `O=C(Nc1ccc(F)cc1F)N1Cc2ccccc2-n2cccc2C1c1cccs1` (stereo not given): 5.08%, 3.92%, -5.48%, -13.7% and -0.57%.
Take `CC(=O)OC[C@]12C[C@H](OC(=O)CC(C)C)C(C)=C[C@H]1O[C@@H]1[C@H](O)[C@@H](O)[C@@]2(C)[C@]12CO2`: the activity change, negative = inhibition in experiment [1] was 0%; in experiment [2], 3.33%; in experiment [3] it was 2.71%; in experiment [4], -11.3%; in experiment [5], 3.88%.
As for `c1cncc(C2=NOC3(CCN(C4COC4)CC3)C2)c1`, the activity change, negative = inhibition is -1.44% in experiment [1]; -5.58% in experiment [2]; 0.465% in experiment [3]; -3.39% in experiment [4]; -2.98% in experiment [5].
On to `O=C(Cc1ccc(Cl)c(Cl)c1)N1CCCCC1CN1CCCC1` (stereo not given), for which the activity change, negative = inhibition in experiment [1] is -6.36%; in experiment [2] it was 7.63%; in experiment [3] it was -4.77%; in experiment [4], -11.1%; in experiment [5] it was -2.01%.
For the compound `COc1cccc(NC(=O)N2Cc3ccccc3-n3cccc3C2c2ccccc2Cl)c1` (stereo not given), the activity change, negative = inhibition in experiment [1] amounted to 9.16%; in experiment [2], 1.7%; in experiment [3], 2.16%; in experiment [4] it was 2.64%; in experiment [5] it was 6.13%.
The corresponding values for `C#CCOC(=O)C1=CCCN(C)C1` are -3.33%, 5.84%, 0.093%, -2.17% and 7.91%.
For the compound `OCc1nnc2n1-c1ccc(Cl)cc1C(c1ccccc1Cl)=NC2`, the activity change, negative = inhibition is 2.03% in experiment [1]; 7.3% in experiment [2]; 5.58% in experiment [3]; -9.87% in experiment [4]; 3.28% in experiment [5].
The matching figures for `NC(=O)CN1C(=O)CO[C@H]2CN(Cc3ccccn3)C[C@H]21`: -0.931%, 1.72%, 1.18%, -2.95% and -3.44%.
For `Cc1cc(CN2CCC23Cc2ccccc2NC3=O)no1` (stereo not given), the activity change, negative = inhibition in experiment [1] is -7.1%; in experiment [2] it was -6.17%; in experiment [3], -3.57%; in experiment [4] it was -9.36%; in experiment [5], -11%.
As for `COCCN1C(=O)CS(=O)(=O)C12CCNCC2`, the activity change, negative = inhibition in experiment [1] was -3.71%; in experiment [2], -5.88%; in experiment [3], -2.44%; in experiment [4], -7.85%; in experiment [5] it was -1.59%.
The corresponding values for `CNCC(O)c1ccc(O)cc1` (stereo not given) are 3.65%, 9.47%, 1.67%, -2.24% and -26.2%.
With `Cc1nc(-c2cccs2)cc([C@H]2CN3CC[C@H]2C[C@@H]3COC(=O)Nc2ccc(C(C)C)cc2)n1`, the activity change, negative = inhibition is -9.64% in experiment [1]; -11.2% in experiment [2]; -15.3% in experiment [3]; -28.5% in experiment [4]; -17.9% in experiment [5].
Take `N#Cc1cn([C@@H]2O[C@H](CO)[C@H](O)[C@@H]2O)c2ncnc(N)c12`: the activity change, negative = inhibition was -101% in experiment [1]; -102% in experiment [2]; -98% in experiment [3]; -103% in experiment [4]; -101% in experiment [5].
As to `CCOc1ccccc1-n1c(C(C)N2CCN(C(=O)COc3ccc(Cl)cc3)CC2)nc2ccccc2c1=O` (stereo not given), the activity change, negative = inhibition in experiment [1] is 0.928%; in experiment [2], 2.72%; in experiment [3], 10.5%; in experiment [4], -21.9%; in experiment [5] it was -2.15%.
In the case of `c1ccc(CCCN2CCN(CCOC(c3ccccc3)c3ccccc3)CC2)cc1`, the activity change, negative = inhibition was -14.8% in experiment [1]; 3.54% in experiment [2]; -3.76% in experiment [3]; -9.12% in experiment [4]; 4.04% in experiment [5].
The corresponding values for `COc1ccc(C2c3cccn3-c3ccccc3CN2C(=O)Nc2ccc(C)c(F)c2)cc1` (stereo not given) are 9.47%, 0%, 1.58%, 3.3% and 5.66%.
The corresponding values for `O=C(Nc1ccc(F)cc1F)N1Cc2ccccc2-n2cccc2C1c1ccccc1` (stereo not given) are 6.26%, 4.33%, 1.26%, -0.972% and 7.92%.
The matching figures for `CSc1ccc(C2c3cccn3-c3ccccc3CN2C(=O)NCCC(C)C)cc1` (stereo not given): -4.08%, 0%, -1.09%, 1.95% and 3.85%.
On to `COc1cccc(CNC(=O)N2Cc3ccccc3-n3cccc3C2C)c1` (stereo not given), for which the activity change, negative = inhibition in experiment [1] is 8.86%; in experiment [2], 3.59%; in experiment [3], 1.55%; in experiment [4], -6.79%; in experiment [5], 8.06%.
Consider `CCOc1ccc(NC(=O)N2Cc3ccccc3-n3cccc3C2c2ccccc2C)cc1` (stereo not given), for which the activity change, negative = inhibition in experiment [1] worked out at 11.7%; in experiment [2], 0%; in experiment [3], 7.32%; in experiment [4], 6.77%; in experiment [5], 7.44%.
The corresponding values for `Cc1ccc(NC(=O)N2Cc3ccccc3-n3cccc3C2c2ccccc2C)c(C)c1` (stereo not given) are 7.66%, 0%, 3.25%, 1.93% and 2.89%.
The matching figures for `CN(CCc1ccccn1)C[C@H]1CN2CC[C@H]1C[C@@H]2CNC(=O)c1ccco1`: -0.945%, -1.45%, -7.1%, 0.217% and 2.23%.
The matching figures for `COc1cc(C)[nH]c(=O)c1CNC(=O)c1c(C)n([C@H](C)C2CCOCC2)c2ccccc12`: 1.9%, 5.93%, 12.3%, -12.3% and 2.34%.
As for `C=C1[C@@H](C)C2[C@H](Cc3ccccc3)NC(=O)[C@@]23C(/C=C/C[C@H](C)C[C@@](C)(O)/C=C/[C@@H]3OC(C)=O)[C@@H]1O` (stereo not given in full), the activity change, negative = inhibition in experiment [1] was -1.72%; in experiment [2], -5.93%; in experiment [3] it was -0.951%; in experiment [4], -15.8%; in experiment [5] it was -2.15%.
On to `CCN(C1CCOCC1)C1CNC1`, for which the activity change, negative = inhibition in experiment [1] is -1.17%; in experiment [2], -1.41%; in experiment [3], -2.99%; in experiment [4], -3.64%; in experiment [5], -6.74%.
The matching figures for `CN1C(=O)CCS(=O)(=O)C1c1ccc(Cl)cc1` (stereo not given): -6.84%, 3.28%, -2.52%, -6.02% and 4.93%.
The matching figures for `Cc1cccc(C2c3cccn3-c3ccccc3CN2C(=O)Nc2cc(C)ccc2C)c1` (stereo not given): 6.21%, -3.37%, -0.803%, -7.16% and -2.93%.
The corresponding values for `Cc1cccc(C2c3cccn3-c3ccccc3CN2C(=O)NC2CCCC2)c1` (stereo not given) are 8.32%, 0%, 5.74%, 4.03% and 4.61%.
